Out of some 110,000 compounds screened, about 230 (0.21%) showed an effect of 50% or more. This is one part of the list.
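Further: 30 min substrate incubation versus DMSO and 10 µM JCP410 controls.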

In the test the target is DPAP1 (Plasmodium falciparum, UniProt Q8IIJ9). Briefly: primary screen, percent inhibition; read by cleavage of a fluorogenic dipeptide substrate; higher = more effect of the substance. On the set-up: species or system P. falciparum D10 trophozoite lysates; single well.
DPAP1, sequence (Q8IIJ9 whole entry, looked up): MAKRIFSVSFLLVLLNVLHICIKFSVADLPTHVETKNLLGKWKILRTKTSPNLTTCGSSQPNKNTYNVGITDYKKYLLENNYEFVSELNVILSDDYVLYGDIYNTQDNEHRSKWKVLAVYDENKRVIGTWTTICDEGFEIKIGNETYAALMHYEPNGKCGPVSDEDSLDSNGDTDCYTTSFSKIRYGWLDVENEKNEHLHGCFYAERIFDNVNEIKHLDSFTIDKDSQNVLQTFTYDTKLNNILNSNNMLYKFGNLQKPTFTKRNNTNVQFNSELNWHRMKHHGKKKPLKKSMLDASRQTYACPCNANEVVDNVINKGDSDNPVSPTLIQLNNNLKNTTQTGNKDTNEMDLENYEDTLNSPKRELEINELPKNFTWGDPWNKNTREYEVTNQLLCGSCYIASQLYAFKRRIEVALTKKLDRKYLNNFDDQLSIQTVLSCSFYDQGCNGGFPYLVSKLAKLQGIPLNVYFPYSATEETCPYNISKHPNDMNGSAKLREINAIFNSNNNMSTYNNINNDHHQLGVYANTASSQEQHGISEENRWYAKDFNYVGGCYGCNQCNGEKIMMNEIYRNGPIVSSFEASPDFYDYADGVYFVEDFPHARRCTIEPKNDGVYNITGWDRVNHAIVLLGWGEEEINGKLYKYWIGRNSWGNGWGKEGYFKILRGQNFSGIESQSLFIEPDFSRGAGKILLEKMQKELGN
As for `O=C(O)C1C2CCC(C2)C1C(=O)Nc1ccc(Br)cc1F` (stereo not drawn), the “% Inhibition @ 10 uM” value is on record as -6.08%. `COCCCNC(=O)c1cc(O)nc2ccc(S(=O)(=O)N3CCCCCC3)cc12`: the “% Inhibition @ 10 uM” value is on record as 5.7%. Next, `CC(C)(C)C(/C=C\c1ccc(Cl)cc1Cl)n1nnnc1C(c1ccc(Cl)cc1)N1CCOCC1` (stereo not drawn): 6.61%; `COc1ccc(/C=C/c2nc(=O)c3ccccc3o2)cc1`: -0.171%. `CCOc1ccc(NC2=C(Cl)C(=O)N(Cc3ccccc3)C2=O)cc1`: the “% Inhibition @ 10 uM” value is recorded as 1.08%. Then `CC(C)(C)NC(=O)COc1ccc2ccccc2c1Br`, with 0.755%; and `Cc1cc(=O)oc2c3c(ccc12)OCN(CCc1ccccc1)C3`, with -2.65%.

Consider `O=C1c2n[nH]c(-c3ccccc3O)c2C(c2ccccc2F)N1CC1CCCO1` (stereo not drawn), for which the “% Inhibition @ 10 uM” value stood at 5.17%. Next, `CSC1=C(C#N)C(c2ccc(F)cc2)CC(=O)N1` (stereo not drawn): 5.58%; `CCOC(=O)N1CCN(CC(=O)Nc2cc(C)on2)CC1`: 1.03%; `COC(=O)c1sc(NC(=O)c2cc(Cl)ccc2OC)c(C#N)c1C`: 22.4%. Then `CCN1CCc2c(sc(-n3cccc3)c2C(CCC(C)C)NC(=O)NCCCOC)C1` (stereo not drawn), with -5.59%. Consider `CN(C)C(=O)CSc1nc2ccc(N3C(=O)c4ccccc4C3=O)cc2s1`, for which the “% Inhibition @ 10 uM” value is given as -1.84%. Then `CCOC(=O)/C(C(=N)C(F)(F)F)=C(\O)OCC`, with 4.84%.

For `CCC(C)[C@@H](C(=O)NCc1ccccc1C)N1Cc2ccccc2C1=O` (stereo partly drawn), the “% Inhibition @ 10 uM” value stood at 2.93%.

Take `COc1cccc(O[C@@H]2O[C@@H]3COC(C)(C)O[C@H]3[C@H](O)[C@H]2NC(C)=O)c1`: the “% Inhibition @ 10 uM” value is given as 4.67%. Next, `CC(C)N(Cc1nc(-c2ccc(Cl)cc2)no1)C(=O)CCc1ccccc1`: -0.646%; `COc1cc(C2C3=C(O)CCCC3=NC(C)=C2C(=O)Nc2c(F)cccc2F)cc(OC)c1OC` (stereo not drawn): -5.58%. Then `COc1ccc(C(=O)NC2CCCCCC2)cc1`, with 0.147%. Then `CC1(C)CC(=O)c2c(-c3cccnc3)n[nH]c2C1`, with -3.63%.

On to `c1nc(N2CCCC3CCCCC32)c2nc[nH]c2n1` (stereo not drawn), for which the “% Inhibition @ 10 uM” value was 1.9%. As to `COc1ccc(C(=O)Nc2ccc(F)cc2F)cc1`, the “% Inhibition @ 10 uM” value stood at 1.04%. For the compound `CNS(=O)(=O)c1cn(CC(=O)NC2CCN(Cc3ccccc3)CC2)cc1S(=O)(=O)NC`, the “% Inhibition @ 10 uM” value is on record as -0.165%.

`CCCCNC(=O)c1cc2c(Cl)nc3ccccc3c2s1`: the “% Inhibition @ 10 uM” value was 3.88%. Then `CC(C)Oc1cccc(-c2cc(C(=O)N3CCOCC3)c3ccccc3n2)c1`, with 13%; and `Cc1ccc(NS(=O)(=O)c2ccc(NC(=O)COc3ccccc3)cc2)c(C)c1`, with -4.7%; and `Cc1cc(=O)oc2c3c(ccc12)OCN(Cc1ccc2c(c1)OCO2)C3`, with 10.2%. With `CCN(CC)/C(C)=N/C(=O)NC(c1ccc(C)cc1)C(Cl)(Cl)Cl` (stereo not drawn), the “% Inhibition @ 10 uM” value turned out to be 1.03%.

With `CCN(CC)CCCNc1oc(/C=C/c2cccs2)nc1C#N`, the “% Inhibition @ 10 uM” value is -3.49%. Then `O=C(CSc1nnc(O)nc1O)OCc1ccccc1`, with 6.19%; and `CCOC(=O)c1cc(S(=O)(=O)N(CCc2ccccc2)Cc2ccccc2)cn1C`, with -6.59%. Turning to `Cc1ccc2oc(=O)c3cc(C(=O)N(CCN(C)C)Cc4ccccc4)sc3c2c1`, the “% Inhibition @ 10 uM” value is on record as -3.06%.

Take `Cc1nccn1S(=O)(=O)c1ccc2ccccc2c1`: the “% Inhibition @ 10 uM” value is recorded as -4.21%. Next, `CC1CC(=O)C2=C(C1)OC(N)=C(C#N)C2c1ccoc1` (stereo not drawn): -1.38%; `O=C1c2ccccc2C(O)N1Cc1ccccc1Cl` (stereo not drawn): -1.03%. Then `CN1C(=O)CC(C(=O)Nc2ccc(C(=O)O)cc2)S/C1=N\c1cccc(Cl)c1` (stereo not drawn), with 1.31%.

For the compound `Cc1cccc(OCCc2c(C)n[nH]c2C)c1C`, the “% Inhibition @ 10 uM” value worked out at 1.63%. Then `CCCc1nn(-c2ccc(F)cc2)c(O)c1/C=N/Cc1ccc(Cl)cc1`, with -2.83%. Then `COc1ccc(-c2cc(C(=O)N3CCCC3)c3ccccc3n2)cc1`, with 2.9%. With `CCCn1c(=N)n(CC(=O)c2ccco2)c2ccccc21`, the “% Inhibition @ 10 uM” value is recorded as 3.44%. Then `COc1ccc(-c2cc(C(F)(F)F)n3nc(C(=O)Nc4cccnc4Cl)cc3n2)cc1`, with -3.89%. Then `Cc1cc(C)n(-c2cccc3cccnc23)n1`, with -1.69%. Consider `CC(=O)N1C(=S)NC(=O)/C1=C\c1cccnc1`, for which the “% Inhibition @ 10 uM” value is on record as -6.02%.

In the case of `CC1=Nc2nnnn2C(c2ccccc2)/C1=C(\O)OCc1ccccc1` (stereo not drawn), the “% Inhibition @ 10 uM” value is reported as -4.1%. Next, `Cc1ccccc1Cc1c(C)nc2c(C(=O)NC3CCCC(C)C3C)cnn2c1C` (stereo not drawn): 7.47%; `COCc1cc(C)nc(N2CCN(Cc3ccccc3)CC2)c1C#N`: -1.32%; `CC(C)(C)C(=O)Nc1ccc(S(=O)(=O)Nc2cnc3ccccc3n2)cc1`: -4.22%. Take `CCCNC(=O)c1ccc(N(C)S(=O)(=O)c2ccccc2)cc1`: the “% Inhibition @ 10 uM” value is -2.28%. Turning to `CCOC(=O)c1c(C)[nH]c(C)c1S(=O)(=O)N(C)CC(=O)Nc1cccc(C)n1`, the “% Inhibition @ 10 uM” value is -0.695%. Then `O=C(N1CC2CC(C1)c1cccc(=O)n1C2)n1ccnc1` (stereo not drawn), with 0.0198%. Regarding `CCOc1cccc(/C=C2\S/C(=N/c3ccc(OC)cc3)N(CC)C2=O)c1O`, the “% Inhibition @ 10 uM” value is -5.35%.

For the compound `COc1ccc2c(c1)c1nc3n(c(=O)c1n2CC(=O)Nc1cc(C)[nH]n1)CCS3`, the “% Inhibition @ 10 uM” value is given as -10%. Then `CCc1ccc(C2=C/C(=C/c3ccc(C)c(OC)c3)C(=O)O2)cc1`, with -3.74%; and `CC(=O)Nc1ccc(Nc2nc(-c3ccccc3)nc3ccccc23)cc1`, with -0.992%; and `CC(C)c1nnc(NC(=O)/C=C/c2ccccc2)s1`, with 10.8%. With `CCOCCCNC(=O)C1CCCN(S(=O)(=O)N2CCN(C(=O)OCC)CC2)C1` (stereo not drawn), the “% Inhibition @ 10 uM” value amounted to 2.05%.

Take `CCOc1ccccc1C(=O)Nc1ccc(C(C)C)cc1`: the “% Inhibition @ 10 uM” value is recorded as -1.07%. In the case of `CCCCN(C)Cc1cc(Br)c(O)c(OC)c1`, the “% Inhibition @ 10 uM” value is -1.86%. Next, `O=C(CN(Cc1ccc(Cl)cc1)S(=O)(=O)c1ccccc1)N1CCCCCC1`: -1.26%; `CCOC(=O)c1sc(NC(=O)c2cc(-c3ccc(OC)cc3)on2)c(C(=O)OCC)c1C`: 0.723%. Next, `COc1ccc(-c2nc(SCC(=O)NCC3CCCO3)c(-c3ccc(F)cc3)[nH]2)cc1OC` (stereo not drawn): -0.0521%; `Cc1ccc(C2(c3ccc(C)cc3)CC2C(=O)Nc2ccc([N+](=O)[O-])cc2)cc1` (stereo not drawn): -0.0217%.

On to `O=C(Nc1ccccc1Cl)C1CC(=O)N(c2ccccc2F)C1` (stereo not drawn), for which the “% Inhibition @ 10 uM” value is listed as -10.4%. As for `CCC(C(=O)Nc1nnc(Cc2ccccc2F)s1)c1ccccc1` (stereo not drawn), the “% Inhibition @ 10 uM” value is -3.78%. Turning to `O=C(c1cccs1)N1CCC(Cc2ccccc2)CC1`, the “% Inhibition @ 10 uM” value is recorded as -6.07%. Next, `COc1ccc(-c2nc(CNS(=O)(=O)c3cc(OC)ccc3OC)cs2)cc1`: -6.09%; `Cc1oc(-c2ccc(C(=O)N3CCC(C(N)=O)CC3)cc2)nc1COc1ccccc1`: 3.8%; `COc1ccc(OC)c(C2C3=C(O)CCCC3=Nc3ccc4nc(C)ccc4c32)c1` (stereo not drawn): 5.48%.

With `CCCn1c2c(c(O)c(C(=O)Nc3ncccc3C)c1=O)CCCC2`, the “% Inhibition @ 10 uM” value is on record as -0.458%. Take `COc1ccc(S(=O)(=O)c2cnc3ccc(OC)cc3c2N2CCCCC2)cc1`: the “% Inhibition @ 10 uM” value was 1.47%. In the case of `CCc1nn(CC(=O)NCCc2cccs2)c(=O)c2cc3ccccc3n12`, the “% Inhibition @ 10 uM” value is on record as -5.37%. Next, `Cc1c(C#N)c(O)nc(O)c1/C=N/c1ccc(S(=O)(=O)N(C)C)cc1`: 2.67%; `CCc1cccc(NC(=O)c2ccc(C)o2)c1`: -1.63%; `O=S(=O)(Nc1cccc(-c2cn3cccnc3n2)c1)c1ccccc1`: -3.26%.

In the case of `Cc1ccc(-c2noc(CN(C)S(=O)(=O)c3c(C)cc(C)cc3C)n2)cc1`, the “% Inhibition @ 10 uM” value came to 4%. Consider `COc1ccc(-c2cc(C(=O)NC3CC3)[nH]n2)cc1`, for which the “% Inhibition @ 10 uM” value is reported as -1.3%. On to `CN(CCC#N)C(=O)COc1ccc2c(c1)C(=O)CC(C)(C)O2`, for which the “% Inhibition @ 10 uM” value is given as -3.12%. Regarding `CC(C)CC(C(=O)NCC#N)c1cccc(-c2ccc(S(=O)(=O)NCCCN3CCOCC3)cc2)c1` (stereo not drawn), the “% Inhibition @ 10 uM” value is -1.41%. Next, `COC(=O)c1cc2ccsc2n1Cc1ccc(C)cc1`: -3.67%; `O=C1c2cccc3cccc(c23)C(=O)N1CCN1CCOCC1`: -1.29%; `CC(C)n1c(CN2CCOCC2)nc2c1c(=O)n(C)c(=O)n2C`: -1.11%. Then `COc1ccc(N(CC(=O)N2CCN(Cc3ccccc3)CC2)S(C)(=O)=O)cc1`, with -9.45%. On to `Cc1c(C)n(Cc2ccc(F)cc2)c2ccc(C(=O)NCCc3ccco3)cc12`, for which the “% Inhibition @ 10 uM” value is reported as -3.76%. Then `CC(CCc1ccccc1)NC(=O)CN(C)c1nnc(N2CCCC2=O)s1` (stereo not drawn), with 1.31%; and `CCc1cccc(NC2CC(=O)N(c3ccccc3)C2=O)c1` (stereo not drawn), with 3.17%. Then `CCN(CC)CCCNC(=O)Cn1cc2c(n1)CCC(C)C2` (stereo not drawn), with 0.137%; and `CCO/C(O)=C1\C(C)=Nc2nc(C)nn2C1c1cc(OC)ccc1OC` (stereo not drawn), with -3.41%; and `CC1CCCC(N(C)CCN(C)C)C1` (stereo not drawn), with -3.6%. Then `O=C(Nc1ccc(Cl)c(Cl)c1)C12CC3CC(CC(C3)C1)C2`, with 3.1%; and `CCCS(=O)(=O)N1N=C(c2ccc(C)cc2)CC1c1ccco1` (stereo not drawn), with 1.05%. On to `O=C(NC12CC3CC(CC(C3)C1)C2)c1ccc2c(c1)OCO2`, for which the “% Inhibition @ 10 uM” value is -1.44%. For `COC(=O)c1c(NC(=O)c2ccccc2Br)sc(C)c1C`, the “% Inhibition @ 10 uM” value is listed as 18.5%. Next, `COc1ccc(C2=N/C(=C\C(C)=C\c3ccccc3)C(=O)O2)c(Cl)c1`: 6.1%; `CS(=O)(=O)c1ccc(N2CCC(c3ccc(Cl)cc3)=N2)cc1`: 9.71%; `CC1=C(C(=O)Nc2ccccn2)C(c2cccc(Br)c2)n2ncnc2N1` (stereo not drawn): -1.57%. With `COc1ccc(C2=N/C(=C\C=C\c3ccccc3)C(=O)O2)cc1OC`, the “% Inhibition @ 10 uM” value worked out at 1.25%. Turning to `O=S(=O)(c1ccc(F)cc1)N1CCN=C1c1ccccc1`, the “% Inhibition @ 10 uM” value worked out at 5.49%.

With `CCCOc1ccc(C2C(C(=O)OCC)=CN(Cc3ccc(OC)cc3)C=C2C(=O)OCC)cc1`, the “% Inhibition @ 10 uM” value stood at 0.00995%. In the case of `CN(C)Cc1c[nH]c2cc([N+](=O)[O-])ccc12`, the “% Inhibition @ 10 uM” value was -1.45%.

For the origin of these results see paper PMC6919601, “Identification of Plasmodium dipeptidyl aminopeptidase allosteric inhibitors by high throughput screening” (PLoS ONE, 2019).
